Tested on: wheat stem base rot disease
Settings: in words
Procedure: Wheat stem base rot disease control experiments were conducted in 2020 and 2021. The experiments were conducted using the following formulations: 12% cyclobutrifluram·prochloraz suspension seed coating in example 4 of formulation implementation, 20% cyclobutrifluram suspension seed coating, 20% prochloraz suspension seed coating, and 15% carbendazim·fipronil suspension seed coating. The experimental site was located in Liuhu Farm, Suixi County. The wheat variety is “Quanmai 725”. The dosage of the preparation was 1:400 by weight to the seeds for seed coating, and the drug was diluted into a drug solution. The final dosage of drug solution and the dosage of seeds was 1 liter of drug solution to coat 100 kg wheat seeds, and then sow directly after shade drying. The disease investigation was conducted after jointing and booting (Table 5).

| Compound | control effect on wheat stem base rot disease |
| --- | --- |
| O=C(NC1CCC1c1ccc(Cl)cc1Cl)c1cccnc1C(F)(F)F (centres unmarked) [Cyclobutrifluram(C), Cyclobutrifluram] | significant control effect |
| CCCN(CCOc1c(Cl)cc(Cl)cc1Cl)C(=O)n1ccnc1 [Prochloraz(P), Prochloraz] | significant control effect |

Source: patent US20240381870A1 (priority 2024, published 2024)
